Source: article PMC4336329 (PLoS ONE, 2015)
The whole screen tested about 310,000 compounds, of which about 14,000 (4.5%) showed an effect of 50% or more. Effects have a minus sign here. Some of the results follow.

Biological target: human ether-à-go-go-related gene (hERG) potassium channel (human, UniProt Q12809)
Experiment: primary screen, population patch clamp on CHO cells stably expressing hERG
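Note: peak tail current of the secondary pulse compared with the same well before compound.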

Chain of human ether-à-go-go-related gene (hERG) potassium channel (Q12809 whole entry, looked up): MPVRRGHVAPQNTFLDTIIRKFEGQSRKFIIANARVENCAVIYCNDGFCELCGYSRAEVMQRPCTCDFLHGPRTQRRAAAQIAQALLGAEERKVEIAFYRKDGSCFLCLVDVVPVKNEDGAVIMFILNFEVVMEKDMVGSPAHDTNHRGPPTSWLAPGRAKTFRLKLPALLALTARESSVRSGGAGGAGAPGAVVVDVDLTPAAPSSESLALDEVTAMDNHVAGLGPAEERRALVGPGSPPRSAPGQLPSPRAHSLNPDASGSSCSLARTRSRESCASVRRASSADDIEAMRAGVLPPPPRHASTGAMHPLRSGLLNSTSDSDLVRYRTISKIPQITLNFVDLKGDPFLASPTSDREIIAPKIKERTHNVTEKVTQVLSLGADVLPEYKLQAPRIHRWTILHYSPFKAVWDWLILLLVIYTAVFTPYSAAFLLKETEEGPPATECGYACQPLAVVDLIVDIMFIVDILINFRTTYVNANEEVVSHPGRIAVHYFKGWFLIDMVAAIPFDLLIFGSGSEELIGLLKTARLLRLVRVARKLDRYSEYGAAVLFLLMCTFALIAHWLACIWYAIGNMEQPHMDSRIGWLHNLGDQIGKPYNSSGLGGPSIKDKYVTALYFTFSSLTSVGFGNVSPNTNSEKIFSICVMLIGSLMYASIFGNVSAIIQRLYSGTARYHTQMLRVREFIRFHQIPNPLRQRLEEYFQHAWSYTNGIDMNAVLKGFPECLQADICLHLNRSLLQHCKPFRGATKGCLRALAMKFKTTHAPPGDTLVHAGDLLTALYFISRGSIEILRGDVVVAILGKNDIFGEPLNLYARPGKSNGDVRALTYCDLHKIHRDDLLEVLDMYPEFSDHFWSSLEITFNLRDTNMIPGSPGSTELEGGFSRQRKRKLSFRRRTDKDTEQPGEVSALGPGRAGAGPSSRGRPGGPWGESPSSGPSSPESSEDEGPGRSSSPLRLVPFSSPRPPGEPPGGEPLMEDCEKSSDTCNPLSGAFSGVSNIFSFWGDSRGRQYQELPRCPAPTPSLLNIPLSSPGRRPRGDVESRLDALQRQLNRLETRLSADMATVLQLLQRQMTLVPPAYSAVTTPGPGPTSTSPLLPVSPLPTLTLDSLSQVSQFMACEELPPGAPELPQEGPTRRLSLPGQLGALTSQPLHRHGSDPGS

Compound | hERG current change (%, negative = inhibition) at 10uM
Cc1cc(Cl)c(S(=O)(=O)NCc2ccncc2)cc1OCC(N)=O | 1.62%
CC(=O)Nc1ccc(NC(=O)C(C)n2nc(C)c([N+](=O)[O-])c2C)cc1 (stereo not shown) | 7.8%
CC(SCc1ccc(C(=O)O)o1)c1ccc(C(=O)O)o1 (stereo not shown) | 19.9%
CCOc1ccc(-n2c(SC)nc3c(c2=O)SCC3)cc1 | 19.8%
Cc1cc(OC(=O)c2cccs2)c2c3c(c(=O)oc2c1)CCCC3 | 17.9%
COc1ccc(C(C)=O)cc1CSc1nnnn1-c1ccc(O)cc1 | -21.5%
Cc1ccc(-n2c(O)c(C=NC3CCS(=O)(=O)C3)c3ccccc3c2=O)cc1C (stereo not shown) | -27.1%
CCOP(=O)(OCC)C(O)c1ccc(OC)cc1 (stereo not shown) | 13.6%
CCOc1ccc(NC(=O)COC(=O)CCCc2c[nH]c3ccccc23)cc1 | -14.4%
CCOc1ccc(C(C)=O)cc1CSc1nnc(-c2ccncc2)n1CCOC | -0.498%
N#CC1(C#N)CC(C=O)=C(N)C1(C#N)CC(=O)c1ccc(F)cc1 (stereo not shown) | 7.03%
CC(C)(C)C1=CC=C(C(C)(C)C)C(=O)C1=O | 11.6%
COc1ccc(N2CCN(C3CCCN(Cc4cccc(C(C)=O)c4)C3)CC2)cc1 (stereo not shown) | -30.2%
COc1ccc2c(c1)C(C1=C(O)CC(C)(C)CC1=O)C1=C(CC(C)(C)CC1=O)O2 (stereo not shown) | -1.82%
CC1CCCC(C)N1C(=O)c1cccc2c1-c1ccccc1/C2=N/O (stereo not shown) | 9.16%
CCNC(=O)NC(=O)CSc1ccccc1F | 10.7%
Cc1ccc(S(=O)(=O)N2CCCCC2)cc1NC(=O)CCOc1ccccc1 | 8.89%
O=C1CCCC2=C1Sc1ccccc1N2 | 24.7%
Cc1n[nH]c(=O)c2c(NC(=O)CSc3nn(-c4ccc(F)cc4)c(=S)s3)oc(C)c12 | -27.5%
CCOc1ccc2ncc(C(=O)c3ccc(OC)cc3)c(N3CCN(CC)CC3)c2c1 | -74.5%
CCC(NS(=O)(=O)c1cn(C)nc1C)c1ccccc1 (stereo not shown) | 21.2%
N=c1c(C(=O)NCc2ccco2)cc2c(=O)n3ccccc3nc2n1CC1CCCO1 (stereo not shown) | -76%
Clc1ccc(-c2noc(CCCc3ccccc3)n2)cc1 | 3.19%
Cc1cc(NS(=O)(=O)c2ccc(NC(=O)/C=C/c3ccc(Br)cc3)cc2)no1 | 20.1%
COc1ccc(C(C)=O)cc1CC(=O)N(Cc1ccccc1)c1ccccc1 | -33.4%
